Hit rate of the full screen: of about 340,000 compounds, about 6,900 (2%) were called active. Rule as the data show it: active = inhibition above about 30%; inactive = below that, where a call was filed. Only a part is listed here, and it is no random draw. Entries without a call were filed so in the source.

As usually defined, the inhibition is the drop in the measured response relative to a control, in per cent.

For the assay, the target named is D(2) dopamine receptor (Homo sapiens) (UniProt P14416). As to the kind of experiment: HTS Assay for Allosteric Antagonists of the Human D2 Dopamine Receptor: Primary Screen for Antagonists. Also: 0% is about no effect. Particulars: HEK293 TREx D2 cells, calcium flux, dopamine EC80; at 10 µM; stronger effect = higher value. A digest of the protocol: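 Dopamine at EC80 is the agonist stimulus; test compounds precede it by 180 s. Calcium flux read kinetically in a force-coupled, inducible HEK293 T-REx D2 cell line.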
Chain of UniProt P14416 (P14416 whole entry, looked up): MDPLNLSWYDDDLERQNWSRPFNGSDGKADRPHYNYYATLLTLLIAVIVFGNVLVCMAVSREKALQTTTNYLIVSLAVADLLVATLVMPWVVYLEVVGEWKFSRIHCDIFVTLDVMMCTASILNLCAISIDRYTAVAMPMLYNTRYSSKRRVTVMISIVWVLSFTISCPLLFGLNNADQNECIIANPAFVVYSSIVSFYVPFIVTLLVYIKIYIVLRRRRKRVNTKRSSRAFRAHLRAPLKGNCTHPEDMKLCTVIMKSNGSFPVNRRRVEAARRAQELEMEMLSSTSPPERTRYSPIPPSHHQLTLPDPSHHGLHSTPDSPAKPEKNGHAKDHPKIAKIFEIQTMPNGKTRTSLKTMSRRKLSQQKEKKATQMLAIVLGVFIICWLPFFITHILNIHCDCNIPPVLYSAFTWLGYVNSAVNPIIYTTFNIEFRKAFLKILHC
Consider `Cc1ccc(N2C(=O)c3oc4cc(C)c(C)cc4c(=O)c3C2c2cccc(O)c2)nc1` (stereo not given), for which the inhibition is -5.76%.

Turning to `Cc1ccc(NC(=O)c2nc(S(=O)(=O)Cc3cccc(C)c3)ncc2Cl)cc1`, the inhibition is -5.47%.

As for `CCN(C(=O)Cn1c(SCC(=O)NCc2ccccc2)nc2ccccc21)c1cccc(C)c1`, the inhibition was -20.6%.

Regarding `O=C(NCc1ccccc1Cl)c1cnc(N2CCCCC2)c2ccccc12`, the inhibition was -12%.

As for `Cc1cccn2c(Nc3ccc4c(c3)OCCO4)c(-c3ccc(Br)o3)nc12`, the inhibition came to 4.76%.

For `O=C(Nc1cccc(Cl)c1Cl)c1cc2nc(-c3ccc4c(c3)OCO4)cc(C(F)(F)F)n2n1`, the inhibition is -15.6%.

Regarding `COc1ccc(-c2cc3ccc(O)c(CN4CCN(CCO)CC4)c3oc2=O)cc1OC`, the inhibition was determined as 7.21%.

Consider `Cc1ccc(-n2nc(C(=O)NCCc3cccc(C)c3)c3c4ccccc4n(C)c3c2=O)cc1`, for which the inhibition was -1.2%.

On to `COc1ccc(OC)c(CNC(=O)c2cc(-c3ccc(Cl)s3)nc3ccccc23)c1`, for which the inhibition stood at 5.42%.

For `COc1cc(-c2nc3n(n2)C(c2ccc(F)cc2)C(C(N)=O)=C(C)N3)cc(OC)c1OC` (stereo not given), the inhibition was -8.97%.

Take `COc1ccccc1NC(=O)c1oc2ccccc2c1NC(=O)c1ccc(S(=O)(=O)N(C)C)cc1`: the inhibition is -11.3%.

Regarding `CCOC(=O)c1cc(S(=O)(=O)Nc2ccc(OC(F)(F)F)cc2)[nH]n1`, the inhibition stood at 3.3%.

Turning to `CCC1CN(C(=O)N2CCC(C(=O)NCc3cc(OC)ccc3OC)CC2)c2ccccc2O1` (stereo not given), the inhibition was -10.2%.

With `Cn1c(C(=O)NCc2ccc(F)cc2)cc2cc(S(=O)(=O)N3CCCCC3)ccc21`, the inhibition is -13.6%.

On to `COc1ccc(NC(=O)CSc2nc(-c3ccc(OC)cc3)cc(=O)[nH]2)cc1`, for which the inhibition is -4.91%.

In the case of `COc1cc(OC)c(NC(=O)c2cc3c(s2)-c2ccc(Cl)cc2SC3)cc1Cl`, the inhibition was found to be 4.6%.

Take `Cc1cccc(N2CCN(C(=O)C3CCN(Cc4nc(-c5ccc(Cl)cc5)oc4C)CC3)CC2)c1C`: the inhibition was determined as 8.13%.

`Cc1cc(NC(=O)C2CCC(CNS(=O)(=O)c3ccc(Br)s3)CC2)ccc1Br` (stereo not given): the inhibition turned out to be 12.1%.

For the molecule `COc1ccc(C)cc1S(=O)(=O)Nc1cccc(-c2ccc(N3CCC(C)CC3)nn2)c1`, the inhibition is -11.5%.

For `CCc1nn2c(-c3ccco3)ccnc2c1-c1ccccc1`, the inhibition stood at 13.8%.

On to `Nc1c(C(=O)NCc2ccc3c(c2)OCO3)nnn1CC(=O)Nc1ccc(Br)cc1`, for which the inhibition is -6.17%.

Consider `Cc1cccc(C)c1OCC(=O)N1CCC(c2nc3ccccc3o2)CC1`, for which the inhibition amounted to 6.21%.

As for `COc1ccc(NC(=O)CN(C)S(=O)(=O)c2ccc(C(=O)N3CCOCC3)s2)cc1`, the inhibition is -17.1%.

As for `O=C(CN1CCN(c2ccc(O)cc2)CC1)Nc1cc(S(=O)(=O)N2CCCC2)ccc1Cl`, the inhibition is active: 43.9%.

For the molecule `CC(=O)N1CCCc2cc(S(=O)(=O)N3CCCC(C(=O)NCc4ccccc4)C3)ccc21` (stereo not given), the inhibition was determined as 1.67%.

In the case of `Cc1cccc(NC(=O)CSc2cn(CC(=O)N3CCCC3)c3ccccc23)c1C`, the inhibition amounted to 1.16%.

Regarding `CCc1ccc(-c2cc(C)no2)cc1S(=O)(=O)Nc1ccc(Cl)cn1`, the inhibition turned out to be 0.415%.

In the case of `Cc1ccc(Cn2cc(C(=O)c3ccc(C)cc3)c(=O)c3ccc(C)nc32)cc1`, the inhibition is -0.295%.

For the molecule `CCOc1ccc(NC(=O)Cn2cc(C(=O)c3ccc(OCC)cc3)c(=O)c3cc4c(cc32)OCCO4)cc1`, the inhibition was -2.24%.

With `COc1ccc(NC(=O)N(C(C)C)C2CCN(C(C)=O)CC2)c(OC)c1`, the inhibition worked out at 3.19%.

In the case of `Cc1ccc(CCNC(=O)c2cc3cc4cc(C)ccc4nc3s2)cc1`, the inhibition was -13%.

Take `COc1cccc(N2CCN(C3OC(=O)c4ccccc43)CC2)c1` (stereo not given): the inhibition is active: 30.5%.

Turning to `COc1ccccc1Cn1c(CNS(=O)(=O)c2ccc(CC(C)C)cc2)nc2cccnc21`, the inhibition was 4.18%.

On to `CN(C)S(=O)(=O)N1CCC(n2cnc3cccnc32)CC1`, for which the inhibition was 9.42%.

On to `O=C1C2=C(Nc3ccccc3SC2c2ccc(Cl)c(Cl)c2)c2ccccc21` (stereo not given), for which the inhibition stood at 17.2%.

Consider `COc1cccc(NC(=O)CN2C(=O)COc3ccc(S(=O)(=O)N4CCCCCC4)cc32)c1`, for which the inhibition is -5.46%.

For the molecule `COC(=O)Cc1c(C)c2cc3c(c(C)c2oc1=O)OCN(CCc1ccc(F)cc1)C3`, the inhibition was 4.63%.

On to `CCc1ccc(NC(=O)CC2C(=O)N(c3ccc(C)cc3)C(=O)N2CCc2ccncc2)cc1` (stereo not given), for which the inhibition is -2.2%.

As for `CCOc1ccc(N(CC)S(=O)(=O)N2CCCC(C(=O)Nc3ccc(NC(C)=O)cc3)C2)cc1` (stereo not given), the inhibition came out at 25.8%.

Consider `CCOC(=O)c1ccc(NS(=O)(=O)c2cn(C)c(C)n2)cc1`, for which the inhibition worked out at 6.42%.

Take `CCS(=O)(=O)c1nc(S(=O)(=O)c2ccc(C)cc2)c(NCc2ccc(Cl)cc2)s1`: the inhibition is -16.4%.

In the case of `COc1cccc(C(=O)Nc2cc(-c3ccccc3)nn2-c2ccccc2)c1`, the inhibition was -0.35%.

With `CCOc1ccc(-c2c(C)nn3c(-c4ccccc4)c(C(=O)NCCOC)cnc23)cc1OCC`, the inhibition is -8.93%.

`O=C(COc1ccc2oc3c(c2c1)CCCC3)Nc1ccc(Cl)cc1`: the inhibition is -9.14%.

As to `CCOc1ccc(C(=O)Nc2ccc(C(=O)OCc3cc(=O)n4nc(CC)sc4n3)cc2)cc1`, the inhibition is -27.7%.

For `COc1ccc(/C=C/C(=O)N2CCC(c3nc4ccccc4o3)CC2)cc1`, the inhibition came out at 18.5%.

As to `COc1ccc(NC(=O)CSc2ccc(-c3cccs3)nn2)cc1`, the inhibition turned out to be 15.7%.

Take `N#Cc1nc(COc2ccccc2Cl)oc1NCc1cccnc1`: the inhibition was active: 40.5%.

On to `COc1ccc(C(=O)Nc2nnc(S(=O)(=O)N3CCN(c4ccc(C)cc4)CC3)s2)cc1`, for which the inhibition is -10%.

Turning to `CC(Oc1ccccc1)C(=O)Nc1nnc(S(=O)(=O)N2CCCCCC2)s1` (stereo not given), the inhibition was determined as 7.06%.

Regarding `Cc1ccccc1C(=O)Nc1cccc(-c2cn3cccnc3n2)c1`, the inhibition was 4.2%.

With `Cc1ccc(Oc2nc3c(c(=O)n(Cc4ccccc4Cl)c(=O)n3C)n2C)cc1C`, the inhibition stood at 2.8%.

For `COc1cccc(-c2cc(C(=O)Nc3ccc4c(c3)OCO4)no2)c1`, the inhibition was -9.52%.

As for `COc1ccc(-c2cc3nc(C)c(CCC(=O)Nc4ccc(F)cc4F)c(C)n3n2)c(OC)c1`, the inhibition is -7.23%.

For the molecule `Cc1sc2nc(CSC(C)C(=O)NC3(C#N)CCCCC3)[nH]c(=O)c2c1C` (stereo not given), the inhibition was active: 38.3%.

Turning to `Cc1cc(C)c(Cn2c(=O)n(-c3ccccc3Cl)c(=O)c3c(C)c(C(=O)N(C)C)sc32)c(C)c1`, the inhibition is 4.23%.

Take `CC(=O)c1c(C)oc2ccc(NS(=O)(=O)c3ccc(C(C)C)cc3)cc12`: the inhibition is -4.55%.

For the molecule `COc1cccc(N2CC(NC(=O)C3CCCCC3)CC2=O)c1` (stereo not given), the inhibition came to 12.1%.

`COc1ccc(N2CCN(C(=O)c3ccc4c(c3)N(Cc3cc(C)ccc3C)C(=O)c3ccccc3S4=O)CC2)cc1` (stereo not given): the inhibition is 2.13%.

Turning to `Cc1ccc(Cl)cc1N1CCN(C(=O)c2cn(CC(C)C)c(=O)c3c2c2ccccc2n3C)CC1`, the inhibition was -23.2%.

For the origin of these results see PubChem BioAssay AID485344 (National Center for Advancing Translational Sciences (NCATS), 2010).
